± gives the uncertainty stated by the source. Whole data set: some 9,900 compounds, median “viability index relative to DMSO control” near 1, cut for the lowest 2% near 0.85. The list shows a part of the results.
Tested on: Plasmodium falciparum NF54 stage V gametocytes
Experiment: viability index relative to DMSO control (fraction); higher = less gametocyte killing
Details: 2.5 µM, library set: Broad Institute DOS, incubation time: 72 h
How it was run: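 Viability index is the count of red-stained particles in a well divided by the plate mean of solvent-only wells. Particles of 20–70 µm2 were counted in one imaged field per well after one to two hours with 3 µl of 2.5 µM MitoTracker Red CMXRos and 0.13% saponin. Before staining, P. falciparum NF54 stage V gametocytes in serum-free medium (0.75% gametocytemia, 1.25% hematocrit, 10 µl, 1,536-well plates) were kept with compound at 2.5 µM for 72 hr at 37°C under low oxygen.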

SMILES | viability index
O=C(NC1CCCCC1)N1CC(=O)N2[C@@H](CO)[C@H](c3ccc(-c4ccncc4)cc3)[C@@H]2C1 | 1.05 ± 0.043
COc1ccc(NC(=O)Nc2cccc3c2O[C@H](CN(C)Cc2ccc(C(=O)O)cc2)[C@@H](C)CN([C@H](C)CO)C3=O)cc1 | 0.985 ± 0.14
CCCNC(=O)N1[C@H](CO)[C@H](c2ccccc2-c2cccc(C)c2)[C@@H]1C#N | 1.06 ± 0.18
O=C(C1CCCCC1)N1CC(=O)N2[C@H](C1)[C@H](c1ccc(-c3ccccc3F)cc1)[C@@H]2CO | 1.01 ± 0.014
CCCC(=O)Nc1ccc2c(c1)C(=O)N(C)C[C@@H](OC)[C@H](C)CN(Cc1cc(-c3ccccc3)on1)[C@H](C)CO2 | 1.04 ± 0.067
C[C@@H]1CCCCO[C@@H](CN(C)C(=O)Nc2ccc(C(F)(F)F)cc2)[C@H](C)CN([C@H](C)CO)C(=O)c2cc(NS(=O)(=O)c3cn(C)cn3)ccc2O1 | 1.13 ± 0.081
C[C@@H](O)C#Cc1ccc([C@H]2[C@@H](CO)N3CCCCN(CC4CC4)C[C@@H]23)cc1 | 1.06 ± 0.059
C/C=C/c1ccc([C@H]2[C@H](CO)N3C(=O)CN(C(=O)Nc4cccc(OC)c4)C[C@@H]23)cc1 | 1.02 ± 0.03
C[C@@H]1CN([C@H](C)CO)C(=O)c2ccccc2-c2ccccc2CO[C@H]1CN(C)S(=O)(=O)c1cccs1 | 0.934 ± 0.052
COc1ccccc1NC(=O)C[C@H]1CC[C@H]2[C@@H](COc3ccc(NS(C)(=O)=O)cc3C(=O)N2C)O1 | 1.1 ± 0.037
O=C(CCN1CCCCC1)N[C@@H]1CC[C@@H](CC(=O)N2CCC(Cc3ccccc3)CC2)O[C@H]1CO | 0.992 ± 0.03
COCC(=O)N1[C@@H]2CN(C(=O)c3cccnc3)c3ccccc3[C@@H]2[C@@H]1CO | 1.05 ± 0.064
CC[C@H]1C/C=C\C[C@H](c2ccc(OC)cc2OC)NC(=O)[C@H](C)CC(=O)N1 | 0.972 ± 0.098
C[C@H](CO)N1C[C@H](C)[C@@H](CN(C)Cc2ccc(Cl)c(Cl)c2)OCCCC[C@H](C)Oc2ccc(NS(=O)(=O)c3cccs3)cc2C1=O | 1.029 ± 0.0071
COc1ccc(NC(=O)N(C)C[C@H]2Oc3ccc(NC(=O)Nc4cccc5ccccc45)cc3CC(=O)N([C@@H](C)CO)C[C@H]2C)cc1 | 0.926 ± 0.11
COCC#Cc1ccc([C@H]2[C@H]3CN(C(=O)CN4CCOCC4)CC(=O)N3[C@H]2CO)cc1 | 1.01 ± 0.12
COCC(=O)N1[C@@H](C#N)[C@H](c2ccccc2-c2ccccc2F)[C@@H]1CO | 1.07 ± 0.014
CCc1cnc(N2[C@H](CO)[C@H](c3ccc(C4=CCCCC4)cc3)[C@@H]2C#N)s1 | 1.09 ± 0.14
COc1ccccc1CNC(=O)C[C@@H]1C[C@@H]2c3cc(NC(=O)C4CCC4)ccc3O[C@@H]2[C@H](CO)O1 | 0.961 ± 0.0032
O=C(C[C@@H]1C=C[C@@H](NC(=O)Nc2cccc(F)c2)[C@H](CO)O1)NCC1CCCCC1 | 0.927 ± 0.071
CO[C@H]1CN(C)C(=O)c2cc(NC(=O)Nc3c(C)noc3C)ccc2OC[C@H](C)NC[C@@H]1C | 0.983 ± 0.071
C[C@H](CO)N1C[C@H](C)[C@@H](CN(C)Cc2ccccc2)Oc2c(NC(=O)Cc3cn(C)c4ccccc34)cccc2C1=O | 0.744 ± 0.038
C[C@H](CO)N1C[C@H](C)[C@@H](CN(C)C(=O)NC2CCCCC2)OCCCC[C@H](C)Oc2ccc(N(C)C)cc2C1=O | 1.06 ± 0.013

SMILES | viability index
O=C(Nc1ccc(F)cc1)N1CC(=O)N2[C@H](CO)[C@@H](c3ccc(C4=CCCC4)cc3)[C@H]2C1 | 1.05 ± 0.02
C[C@H](CO)N1C[C@H](C)[C@@H](CN(C)Cc2ccc(C(=O)Nc3ccccc3N)cc2)OCc2cnnn2CCCC1=O | 0.997 ± 0.034
CCCN1[C@@H]2c3ccc(-c4cccc(OC)c4)c(=O)n3C[C@@H]2[C@@H](CO)[C@@H]1C(=O)OC | 1.02 ± 0.087
COc1ccc2c3c([nH]c2c1)[C@@H](CO)N(Cc1ccccn1)C[C@]31CN(C1)C(=O)CC1CC1 | 0.958 ± 0.032
O=C(NCC[C@H]1CC[C@H](NS(=O)(=O)c2ccc(F)cc2)[C@H](CO)O1)c1ccc2c(c1)OCO2 | 0.931 ± 0.07
C[C@@H]1CCCCO[C@@H](CN(C)S(C)(=O)=O)[C@@H](C)CN([C@H](C)CO)C(=O)c2cc(NC(=O)NC3CCCCC3)ccc2O1 | 1.1 ± 0.019
CCC(=O)N1[C@H](CO)[C@@H](c2ccccc2)C12CN(C(=O)c1ccc3c(c1)OCO3)C2 | 1.08 ± 0.056
CNC(=O)C[C@@H]1CC[C@H]2[C@@H](COC[C@@H](O)CN2Cc2ccccc2F)O1 | 1.11 ± 0.029
Cc1ccccc1S(=O)(=O)N1C[C@@H]2N[C@H](C1)[C@@H]2c1ccc(/C=C/c2ccccc2)cc1 | 0.771 ± 0.028
COCCNC(=O)[C@@H]1[C@@H](CO)[C@@H]2Cn3c(cccc3=O)[C@H]1N2Cc1cccc(Cl)c1 | 1.052 ± 0.01
COc1ccc(S(=O)(=O)Nc2ccc3c(c2)CC(=O)N([C@@H](C)CO)C[C@H](C)[C@@H](CN(C)C(=O)Nc2c(C)noc2C)O3)cc1 | 1.032 ± 0.0071
CN1C(=O)c2cc(NC(=O)c3cnccn3)ccc2OC[C@@H]2O[C@H](CC(=O)N[C@H]3CCN(Cc4ccccc4)C3)CC[C@H]21 | 1.12 ± 0.092
C[C@@H]1CN([C@@H](C)CO)C(=O)c2cc(NC(=O)C3CC3)ccc2O[C@@H]1CN(C)S(=O)(=O)c1ccccc1 | 1.01 ± 0.04
CCCNC(=O)N1C[C@@H](O)COC[C@H]2O[C@@H](CC(=O)OC)CC[C@@H]21 | 1.14 ± 0.053
CO[C@H]1CC[C@H]2CCN(C)C(=O)[C@H](C)CN(C)C(=O)c3cc(C#N)ccc3OC[C@H]1O2 | 1.03 ± 0.05
O=C(NCC[C@@H]1CC[C@@H](NC(=O)C2CCOCC2)[C@H](CO)O1)c1cc(Cl)cc(Cl)c1 | 0.964 ± 0.1
O=C(c1cccc(F)c1)N1CCCCN2[C@@H](CO)[C@H](c3ccc(C#CC4(O)CCCC4)cc3)[C@@H]2C1 | 1.07 ± 0.054
C[C@H]1CN([C@@H](C)CO)C(=O)c2ccccc2-c2ccccc2CO[C@@H]1CN(C)Cc1ccccc1C(F)(F)F | 0.843 ± 0.028
CO[C@H]1CC[C@@H]2CCOc3ccc(C#N)cc3C(=O)N(C)C[C@@H](c3ccccc3)CC(=O)N(C)C[C@H]1O2 | 1.04 ± 0.024
CN1C[C@@H]2[C@H](c3ccccc31)[C@@H](CO)N2Cc1ccccc1Cl | 1.01 ± 0.035
CN1C(=O)c2cc(NC(=O)Cc3cccs3)ccc2OC[C@@H]2O[C@@H](CC(=O)NCC3CCCCC3)CC[C@@H]21 | 1.11 ± 0.068
COc1ccccc1-c1ccc([C@H]2[C@@H](CO)N3CCCCN(C(=O)c4cccnc4)C[C@H]23)cc1 | 0.9761 ± 0.0016
CO[C@H]1CN(C)C(=O)c2cc(NC(=O)CC(F)(F)F)ccc2OC[C@@H](C)N(CC2CC2)C[C@@H]1C | 1.06 ± 0.02

SMILES | viability index
COc1ccccc1NC(=O)N1C[C@@H](O)COC[C@H]2O[C@H](CC(=O)N3CCC(Cc4ccccc4)CC3)CC[C@@H]21 | 1 ± 0.15
O=C(C[C@H]1C=C[C@@H](NC(=O)Nc2ccccc2F)[C@@H](CO)O1)NCc1ccc(-c2ccccc2)cc1 | 1.06 ± 0.033
COc1ccccc1CNC(=O)C[C@@H]1CC[C@H]2[C@H](COc3ccc(NC(C)=O)cc3C(=O)N2C)O1 | 1.05 ± 0.08
COc1ccc2c3c([nH]c2c1)[C@H](CO)N(C[C@]31CCN(CC2CCOCC2)CC1)C(=O)Nc1ccc(F)cc1 | 0.99 ± 0.053
Cc1ccc(S(=O)(=O)N(C)C[C@@H]2Oc3cc(C#CC4CCCC4)ccc3S(=O)(=O)N([C@H](C)CO)C[C@@H]2C)cc1 | 0.943 ± 0.17
CO[C@H]1CC[C@@H]2CCN(C)C(=O)[C@@H](C)CN(C)C(=O)c3cc(C#N)ccc3OC[C@H]1O2 | 1.036 ± 0.0093
Cc1cccc(-c2ccc([C@@H]3[C@@H]4CN(C(=O)c5ccncc5)C[C@H]3N4)cc2)c1 | 1.09 ± 0.12
COCC(=O)N1C[C@@H]2[C@H](c3ccccc31)[C@@H](CO)N2Cc1cc(F)ccc1F | 0.985 ± 0.022
COc1ccc2c3c([C@H](CO)N(C[C@]33CN(C3)C(C)=O)C(=O)c3ccncc3)n(C)c2c1 | 1.01 ± 0.062
C[C@@H]1CN([C@@H](C)CO)C(=O)Cc2cc(NC(=O)CCCCCC(=O)Nc3ccccc3N)ccc2O[C@H]1CN(C)S(=O)(=O)c1cccs1 | 0.993 ± 0.02
CO[C@H]1CC[C@H]2CCN(C)C(=O)CCCN(C)C(=O)c3cc(C#N)ccc3OC[C@@H]1O2 | 0.968 ± 0.026
CC(C)NC(=O)N1[C@@H](CO)[C@H](c2ccccc2)C12CN(C(=O)c1ccccn1)C2 | 1.05 ± 0.016
CO[C@@H]1CC[C@@H]2CCN(C)C(=O)CCCN(C)C(=O)c3cc(C#N)ccc3OC[C@H]1O2 | 0.935 ± 0.043
CC(C)NC(=O)N(C)C[C@@H]1Oc2ccc(NC(=O)Cc3ccccc3)cc2CC(=O)N([C@H](C)CO)C[C@H]1C | 0.978 ± 0.075
COc1ccc2c3c([nH]c2c1)[C@H](CO)N(C[C@]31CN(CC2CCOCC2)C1)C(=O)Nc1c(C)noc1C | 0.9942 ± 0.0039
C/C=C/c1ccccc1[C@H]1[C@@H](C#N)N(C(=O)CN2CCOCC2)[C@@H]1CO | 1.1 ± 0.056
CCS(=O)(=O)Nc1ccc2c(c1)C(=O)N(C)[C@H]1CC[C@H](CC(=O)NCc3ccccc3F)O[C@@H]1CO2 | 1.15 ± 0.15
C[C@@H]1CN([C@@H](C)CO)C(=O)c2cccc(NC(=O)c3nc4ccccc4s3)c2O[C@@H]1CN(C)C(=O)Nc1ccc2c(c1)OCO2 | 0.936 ± 0.13
C[C@H]1CN([C@@H](C)CO)C(=O)c2cc(C3=CCCCC3)cnc2O[C@@H]1CN(C)S(=O)(=O)c1cn(C)cn1 | 1.07 ± 0.074
O=C(C[C@@H]1C[C@@H]2c3cc(NS(=O)(=O)c4ccc(F)cc4)ccc3O[C@@H]2[C@H](CO)O1)NCc1cccnc1 | 1.065 ± 0.0092
C[C@H](NC(=O)C[C@H]1C=C[C@H](NC(=O)c2cccnc2)[C@H](CO)O1)c1ccccc1 | 0.95 ± 0.065
C[C@@H]1CN([C@@H](C)CO)C(=O)Cc2cc(NC(=O)C3CCCCC3)ccc2O[C@H]1CN(C)Cc1ccc(Cl)c(Cl)c1 | 0.892 ± 0.028
C[C@H]1C/C=C/C[C@@H](c2ccc3c(c2)OCO3)NC(=O)[C@H](C)N(C)C(=O)c2ccccc2O1.C[C@H]1C/C=C\C[C@@H](c2ccc3c(c2)OCO3)NC(=O)[C@H](C)N(C)C(=O)c2ccccc2O1 | 0.967 ± 0.0031
